Counter-ions that a name gives are not always drawn. ± gives the standard deviation of the averaged measurements. Out of some 1,000 compounds screened, about 15 (2%) showed an effect of 50% or more. The list shows a part of the results.
System: HFF
Experiment: uninfected host cell viability relative to vehicle control; higher = less host cell toxicity
Details: 5 µM; 72 h; oxygen 21 %
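Also: confluent HFF monolayers, run in parallel with the Toxoplasma growth screen as a host toxicity counterscreen.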

SMILES	uninfected host cell viability [%]
C[C@@]12N[C@@H](Cc3ccccc31)c1ccccc12 [(-)-MK 801 maleate]	86.9 ± 2
COc1ccc(C[C@H]2NC[C@H](O)[C@H]2OC(C)=O)cc1 [Anisomycin]	52.6 ± 3.3
NCCc1c[nH]c2ccc(O)cc12 [Serotonin]	92.55 ± 0.43
O=C1Nc2cc(Cl)c(Cl)cc2N2CCNCC12 (centres undefined)	80.7 ± 2.8
CC(C)(C)NCC(O)COc1cccc2[nH]c(C#N)cc12 (centres undefined) [Cyanopindolol hemifumarate]	83.4 ± 2.1
C[C@@H]1CC[C@H]2[C@@H](C)C(=O)O[C@@H]3O[C@@]4(C)CC[C@@H]1[C@]32OO4 [Artemisinin]	94.89 ± 0.53
CN1[C@@H]2CC[C@H]1C[C@@H](OC(c1ccc(F)cc1)c1ccc(F)cc1)C2 [3α-Bis-(4-fluorophenyl) methoxytropane hydrochloride]	79.5 ± 5.1
O=[N+]([O-])c1cc(O)c(O)c([N+](=O)[O-])c1	95.7 ± 4.9
CN[C@@H]1C[C@@H](c2ccc(Cl)c(Cl)c2)c2ccccc21 [Indatraline hydrochloride]	78.7 ± 3
O=C(O)Cc1cccnc1C(=O)O [Homoquinolinic acid]	96.03 ± 0.14
CN(C)CCN(C)CCc1ccc(Cl)c(Cl)c1 [BD 1047 dihydrobromide]	84.5 ± 2
N=C(N)NN [Aminoguanidine hydrochloride]	88.2 ± 2.1
C=CCN1C[C@H](C)N([C@H](c2ccc(C(=O)N(CC)CC)cc2)c2cccc(O)c2)C[C@H]1C	97.95 ± 0.16
C=CCN1C[C@H](C)N([C@H](c2ccc(C(=O)N(CC)CC)cc2)c2cccc(OC)c2)C[C@H]1C	90.1 ± 1.5
CCCCCCC[n+]1ccc(-c2cc[n+](CCCCCCC)cc2)cc1 [DHBP dibromide]	91.6 ± 1.5
Clc1ccc(C2=CCCC3CCC2N3)cn1 (centres undefined) [UB 165 fumarate]	89 ± 1.1
CN1Cc2ccccc2[C@@H]2c3cccc4[nH]cc(c34)C[C@H]21	86.3 ± 3.7
O=C(N[C@H]1CN2CCC1CC2)c1ccc(Cl)cc1	84.4 ± 4.8
N#Cc1ccc(N2CCN(C(=O)COc3ccc4[nH]cc(CCN)c4c3)CC2)cc1 [Donitriptan hydrochloride]	98.31 ± 0.13
COc1ccc2c(c1)c(CCN1CCOCC1)c(C)n2C(=O)c1cccc(Cl)c1Cl	85.3 ± 3
C=C(C)[C@H]1CN[C@H](C(=O)O)[C@H]1CC(=O)O [Kainic acid]	99.19 ± 0.44
C[C@H](N)Cc1cnc[nH]1 [(S)-(+)-a-Methylhistamine dihydrobromide]	84.3 ± 2

SMILES	uninfected host cell viability [%]
c1ccc(CCCCN2CCC(c3ccccc3)CC2)cc1 [4-PPBP maleate]	95.4 ± 2.2
S=C(NC1CCCCC1)N1CCC(c2cnc[nH]2)CC1 [Thioperamide]	90.1 ± 1.5
N[C@@H](Cn1oc(=O)[nH]c1=O)C(=O)O [L-Quisqualic acid]	96.3 ± 2.2
C[C@H](Cc1ccc(OCC(=O)O)cc1)NC[C@H](O)c1cccc(Cl)c1	92.2 ± 2.6
CC(=O)N(C)c1cccc(-c2ccnc3c(C(=O)c4cccs4)cnn23)c1 [Indiplon]	96 ± 5.5
C=CCN1CC[C@]23c4c5ccc(O)c4O[C@H]2/C(=N/NC(=O)c2ccccc2)CC[C@@]3(O)[C@H]1C5 [Naloxone benzoylhydrazone]	93.47 ± 0.71
O=c1[nH]c2ccccc2n1CCCN1CCC(n2c(=O)[nH]c3cc(Cl)ccc32)CC1 [Domperidone]	88.1 ± 2.1
C1CCc2nnnn2CC1 [Pentylenetetrazole]	96 ± 1.4
CN(C(=O)Cc1ccc(Cl)c(Cl)c1)[C@H](CN1CCCC1)c1ccccc1 [ICI-199,441 hydrochloride]	82.4 ± 1.6
Cc1cccc(C(C)c2c[nH]cn2)c1C (centres undefined) [Medetomidine hydrochloride]	92.1 ± 1.9
C[N+](C)(C)CC#CCN1CCCC1=O [Oxotremorine M]	83.6 ± 3.5
COc1ccc(CNC(=O)/C=C/c2ccc3[nH]cc(CCN(C)C)c3c2)cc1	92.3 ± 0.25
CC(N)Cc1c[nH]c2ccc(OCc3cccs3)cc12 (centres undefined) [BW 723C86 hydrochloride]	79.4 ± 1.7
CN1CCC(c2c[nH]c3ccc(O)cc23)CC1	82.8 ± 1.5
CC(C)[C@@]1(NC(=O)[C@@H]2C[C@@H]3c4cccc5[nH]cc(c45)C[C@H]3N(C)C2)O[C@@]2(O)[C@@H]3CCCN3C(=O)[C@H](Cc3ccccc3)N2C1=O [Dihydroergocristine mesylate]	90.5 ± 3.4
CC(=O)C1=C(O)[C@@H]2[C@H]3c4c[nH]c5cccc(c45)C[C@H]3C(C)(C)N2C1=O [Cyclopiazonic Acid]	85.67 ± 0.58
O=Cc1cn(Cc2ccc(Cl)cc2)c2ccccc12 [Oncrasin 1]	88.62 ± 0.5
NCC(CS(=O)(=O)O)c1ccc(Cl)cc1 (centres undefined) [Saclofen]	87.1 ± 2.1
CC(C(=O)OC1CC2CCC(C1)N2C)c1ccc(Br)cc1 (centres undefined) [PG-9 maleate]	89.1 ± 2.2
Cc1[nH]c2ccc(O)cc2c1CCN [2-Methyl-5-hydroxytryptamine hydrochloride]	83 ± 4.7
Cc1ncc(CN2CC=C(c3ccccc3)CC2)c(N)n1	86.3 ± 3.6
COc1ccc(C(=O)N2CCCC2=O)cc1 [Aniracetam]	92.9 ± 0.94

SMILES	uninfected host cell viability [%]
O=C1/C(=C/c2ccccc2)C[C@@]2(O)[C@H]3Cc4ccc(O)c5c4[C@@]2(CCN3CC2CC2)[C@H]1O5 [BNTX maleate]	22.2 ± 1.1
Nc1ccncc1 [4-Aminopyridine]	86.1 ± 1.4
COc1ccc(-n2nc(C(F)(F)F)cc2-c2ccc(Cl)cc2)cc1	91.9 ± 2.3
COc1cc2c(cc1O)C(CCc1ccc(Cl)cc1)N(C)CC2 (centres undefined)	92.7 ± 3
C[C@H]1CCC/C=C/[C@@H]2C[C@H](O)C[C@H]2[C@H](O)/C=C/C(=O)O1 [Brefeldin A]	45.4 ± 4
C[N+]1(C)CCc2cc3c(cc2C1C1OC(=O)c2c1ccc1c2OCO1)OCO3 (single isomer, unassigned; (-)) [(-)-Bicuculline methobromide]	87.8 ± 4.6
OC1CCCCC1N1CCC(c2ccccc2)CC1 (racemic) [(±)-Vesamicol hydrochloride]	88.6 ± 1.9
N.N.[Cl][Pt][Cl] [Cisplatin]	92.8 ± 2.1
Oc1ccc2c3c1O[C@H]1c4[nH]c5c(c4C[C@@]4(O)[C@@H](C2)N(CC2CC2)CC[C@]314)C[C@@]1(O)[C@H]2Cc3ccc(O)c4c3[C@@]1(CCN2CC1CC1)[C@H]5O4 [nor-Binaltorphimine dihydrochloride]	85.23 ± 0.22
c1cc(Cc2cnc[nH]2)ccn1 [Immethridine dihydrobromide]	85.3 ± 3.4
c1ccc2nc(N3CCNCC3)ccc2c1 [Quipazine dimaleate]	88 ± 4.3
O=C1NCN(c2ccccc2)C12CCN(CC1COc3ccccc3O1)CC2 (centres undefined) [Spiroxatrine]	85 ± 1.8
CN1C[C@H](C(=O)N[C@]2(C)O[C@@]3(O)[C@@H]4CCCN4C(=O)[C@H](Cc4ccccc4)N3C2=O)C[C@@H]2c3cccc4[nH]cc(c34)C[C@H]21 [Dihydroergotamine mesylate]	89.48 ± 0.56
O=C1NC(=O)c2c1c1c3ccccc3[nH]c1c1[nH]c3ccccc3c21 [Arcyriaflavin A]	83.56 ± 0.33
NC1(c2ccccc2Cl)CCCCC1=O (centres undefined) [Norketamine hydrochloride]	97.41 ± 0.47
CCCN(C/C=C/I)C1CCc2ccc(O)cc2C1 (centres undefined) [7-Hydroxy-PIPAT maleate]	89.7 ± 1.6
CC[N+](CC)(CCCNC1=CC(=O)C(NCCC[N+](CC)(CC)Cc2ccccc2)=CC1=O)Cc1ccccc1 [Benzoquinonium dibromide]	93.7 ± 6
CC[C@@]1(O)C(=O)OCc2c1cc1n(c2=O)Cc2cc3ccccc3nc2-1 [Camptothecin]	71 ± 4.9
CC(C)C[C@@H](N)C1(c2ccc(Cl)cc2)CCC1	91.72 ± 0.29
CN1c2ccccc2C(NCCCCCCC(=O)O)c2ccc(Cl)cc2S1(=O)=O (centres undefined) [Tianeptine]	94.4 ± 1.9

Reference: the supplement of paper PMC4894684
